The other results are listed elsewhere or left out. Many values rest on one well or one pass, so single values are uncertain.

79 molecules from the supplement of paper PMC10986608 can be followed below.

The subject of the assay is Candida albicans DPL-15. The assay can be described thus: growth (OD600) after compound treatment (apparently relative to screen median) (relative growth (fraction; screen median 1.02)); DPL-15 is a caspofungin-resistant clinical isolate; higher = more fungal growth (less antifungal activity). The note with it: 25 µM; RPMI 1640; 48 h; 30 °C.
`COc1cc2c(c(OC)c1OC)[C@@]1(c3ccccc3)CCCC[C@H]1[C@@H]2NC(=O)C(F)(F)F`: the growth turned out to be 1.06.

Take `COc1cc(OC)c2c(=O)ccoc2c1I`: the growth is 0.977.

In the case of `CC(C)c1c2c(nn1-c1ccc(F)cc1)C(=O)NC2c1ccc(Br)cc1` (centres undefined), the growth stood at 0.896.

With `CNS(=O)(=O)OCCC(C)CCCC(C)C` (centres undefined), the growth came to 1.1.

As to `C=CCC1=C(OC)[C@@]2(CC=C)C[C@H](Cc3ccc(OC)cc3)[C@@](C(=O)c3ccccc3)(C1=O)C2=O`, the growth turned out to be 1.1.

As for `COc1ccc(N2C(=O)c3[nH]nc(CC(C)C)c3C2c2cccc(F)c2)cc1` (centres undefined), the growth worked out at 0.904.

In the case of `C=CCN1C(=O)[C@H]2[C@H]3c4ccccc4[C@]([C@@H](COC)OC)(c4ccccc43)[C@H]2C1=O`, the growth came out at 1.11.

For `O=C1CC2(CCCCC2)CNC(=O)c2cccc(c2)-c2[nH]ncc2COCCOCCN1`, the growth turned out to be 1.37.

As to `CC(C)Cc1n[nH]c2c1C(C1CCCCC1)N(c1ccc(Br)cc1)C2=O` (centres undefined), the growth worked out at 1.05.

Consider `C#C[C@]1(O)C(OC)=C[C@@H]2C(=O)[C@H]1[C@H](c1ccccc1)[C@H]2C`, for which the growth was 1.01.

In the case of `C#CCOc1ccccc1CNC(=O)CC1(CNC(=O)c2cccc(/C=N/NS(=O)(=O)c3ccc(C)cc3)c2)CCCCC1`, the growth was found to be 1.06.

As for `Cc1cc(C)cc(-n2nc(-c3ccccc3)c3c2C(=O)NC3c2ccc(Br)cc2)c1` (centres undefined), the growth turned out to be 0.768.

For `CC(C)(C)NS(=O)(=O)OCCCCC1OCCO1`, the growth stood at 1.07.

`Cc1nn(-c2ccc(F)cc2)c2c1C(c1ccc(Br)cc1)NC2=O` (centres undefined): the growth was found to be 1.18.

For the molecule `Brc1ccc(-c2ccc3c(n2)CCCN3C[C@@H]2CO2)cc1`, the growth came to 0.96.

As for `CC(C)(C)c1ccc(C#C[C@@H]2C=C[C@@H](OC(N)=O)[C@@H](COC(N)=O)O2)cc1`, the growth was 0.983.

On to `Cn1cc(Nc2cc(O)cc(O)c2C(=O)N2CC[C@H](F)C2)cn1`, for which the growth is 1.07.

Turning to `CC(=O)OC[C@H]1O[C@H](c2ccccc2F)C=C[C@H]1OC(C)=O`, the growth amounted to 0.929.

Take `CC(=O)OC[C@H]1O[C@H](C#Cc2ccc(Br)cc2)C=C[C@@H]1OC(C)=O`: the growth was 0.986.

Turning to `COC(=O)C1=C(C)N(Cc2ccc(C(F)(F)F)cc2)C(NCCc2ccccn2)=NC1c1cccc(Cl)c1` (centres undefined), the growth turned out to be 1.04.

Turning to `CC(=O)OC[C@H]1O[C@H](C#Cc2ccccc2C)C=C[C@H]1OC(C)=O`, the growth was found to be 0.867.

For `COc1c(C)c(C)c(C(=O)OC/C=C/c2ccccc2)c(O)c1C`, the growth was found to be 0.933.

With `CCCCC[C@]12Cc3cc(OC)c(OC)cc3[C@H](O1)c1c(c3ccccc3n(C)c1=O)O2`, the growth amounted to 0.916.

For `CC(C)=CCCC1=CC[C@@H](C(=O)c2ccccc2O)[C@H](c2ccccc2)C1`, the growth came out at 1.06.

For `C[C@H]1C[C@@H]2CC(=O)N3CCC[C@@H]3C(=O)N2[C@H]1c1ccccc1`, the growth came out at 1.18.

With `CCCN1C(NCc2cccc(C(F)(F)F)c2)=NC(c2ccc(F)cc2)C(C(=O)OC)=C1C` (centres undefined), the growth stood at 1.14.

With `CC1=NCC(C)(C)NC2=C1C(c1ccccc1)N(c1ccccc1)C2=O` (centres undefined), the growth came to 1.03.

As for `COC(=O)c1cc2c(c3c4cc(C)ccc4n(S(=O)(=O)c4ccc(C)cc4)c13)C(=O)N(Cc1cccc(F)c1)C2`, the growth came out at 1.02.

With `CC(=O)OC[C@H]1O[C@H](C#Cc2ccc(C)cc2)C=C[C@@H]1OC(C)=O`, the growth turned out to be 0.817.

With `COc1ccc(N2C(=O)c3[nH]nc(CC(C)C)c3C2c2nccs2)cc1` (centres undefined), the growth worked out at 1.3.

Regarding `CC(C)C1=NCCN(C)C2=C1C(c1ccc3c(c1)OCO3)N(c1ccccc1)C2=O` (centres undefined), the growth worked out at 0.998.

`Cc1cc2c(nc1C)CCCN2S(=O)(=O)c1ccc(C(F)(F)F)cc1`: the growth is 0.898.

On to `Cc1cc(O)c2c3c4c(cc(O)c13)O[C@@]1(c3ccc([N+](=O)[O-])cc3)OCC[C@H]1[C@H]4OC2=O`, for which the growth was 1.08.

Consider `COC(=O)c1[nH]c2ccc(F)cc2c1[C@]12CCN(C(=O)c3ccc(S(C)(=O)=O)cc3)[C@H]1Nc1ccccc12`, for which the growth is 1.14.

With `CC(C)Cc1nn(-c2ccccc2)c2c1C(c1cccc(C(F)(F)F)c1)NC2=O` (centres undefined), the growth worked out at 1.15.

Take `CC(C)Cc1n[nH]c2c1C(c1ccc(F)cc1)N(c1ccc(O)cc1)C2=O` (centres undefined): the growth came out at 1.11.

As to `Cc1cc(C)cc(-n2nc(-c3ccccc3)c3c2C(=O)NC3c2ccccc2)c1` (centres undefined), the growth was 0.809.

For the molecule `CC(C)(O)Cn1nc2cc1COC[C@@H](c1ccccc1)NC(=O)CC1(CCCCC1)CNC(=O)c1cccc-2c1`, the growth worked out at 1.01.

With `COc1cc2c(cc1OC)C[N@H+](CCc1ccc(NC(=O)c3cccc4c(=O)c5cccc(OC)c5[nH]c34)cc1)CC2`, the growth worked out at 1.12.

Take `COC(=O)C1=C(C)N(CCCOC(C)C)C(NCc2cccc(C(F)(F)F)c2)=NC1c1ccccc1` (centres undefined): the growth was found to be 1.03.

Turning to `C=CCC1=C(OC)[C@@]2(CC=C)C[C@@H]3[C@@H](c4ccc(Br)cc4)[C@](O)(c4ccccc4)[C@]3(C1=O)C2=O`, the growth was found to be 1.03.

As for `CC(=O)OC[C@H]1O[C@H](c2ccc3c(c2)OCO3)C=C[C@H]1OC(C)=O`, the growth came to 0.767.

In the case of `COC(=O)[C@@]12Oc3ccc(I)c(O)c3C(=O)C1=C(OC)CC[C@H]2OC(C)=O`, the growth is 0.964.

Regarding `CC(C)CCc1cc(OCC(=O)NCC(=O)NCc2ccccc2)cc2oc3ccccc3c(=O)c12`, the growth amounted to 1.03.

Regarding `CCOC(=O)c1nnc2c3ccccc3n(COC)c2n1`, the growth was determined as 1.24.

`COCn1c2ccccc2c2cc3c(nc21)C(=O)OC3C` (centres undefined): the growth is 1.04.

Consider `COc1ccc(N2C(=O)c3[nH]nc(CC(C)C)c3[C@H]2c2ccc(F)cc2C)cc1`, for which the growth stood at 1.2.

For the molecule `COC(=O)C1=CC(OC)=C(Cl)C(=O)C1(OC)OC`, the growth amounted to 1.11.

As for `O=S(OCCC(C)CC/C=C(C)/C)(NC(C)(C)C)=O` (centres undefined), the growth turned out to be 0.876.

With `C/C=C(\C)C1=C2CC[C@H](C(C)C)O[C@@H]2CCCN1S(=O)(=O)c1ccc(C)cc1`, the growth came to 0.977.

In the case of `CCc1ccccc1-n1nc(C)c2c1C(=O)NC2c1cccc(C(F)(F)F)c1` (centres undefined), the growth stood at 0.859.

Regarding `CO[C@@H]1CCN(C(=O)c2c(O)cc(O)cc2Nc2cnn(CCN(C)C)c2)C1`, the growth is 1.12.

For the molecule `Cc1ccc(S(=O)(=O)Oc2c(C[C@@]34CCCCC3=Nc3ccc(F)cc34)occc2=O)cc1`, the growth is 1.08.

With `COc1ccccc1Cn1nc(C(C)C)c2c1C(=O)NC2c1ccc2c(c1)OCO2` (centres undefined), the growth came out at 0.853.

Turning to `C[C@H]1C[C@@H]2CC(=O)N[C@H](Cc3ccccc3)C(=O)N2[C@H]1C1CC1`, the growth was determined as 0.954.

As to `CC(=O)C1=C2C=CCCN2C(=O)NC1c1ccc(Br)c(F)c1` (centres undefined), the growth is 1.28.

As to `CCCCC1=Nc2ccccc2[C@@]1(CCC)Cc1occc(=O)c1OS(C)(=O)=O`, the growth came out at 0.981.

With `CCOC(=O)c1nnc(-c2ccccc2)c(=O)[nH]1`, the growth is 1.

`Cn1nc2c(c1-c1ccccc1)C(c1ccc(Br)cc1)N(c1ccccc1)C2=O` (centres undefined): the growth stood at 1.09.

In the case of `CCN(CC)CCCNC1=NC(c2ccc(Cl)cc2)C(C(=O)OC)=C(C)N1Cc1cccc(C(F)(F)F)c1` (centres undefined), the growth was found to be 0.959.

Consider `COC1(OC)C(=O)C=C[C@H]2[C@@H]1[C@H]1C=C[C@@H]2C(=O)C1(OC)OC`, for which the growth amounted to 0.922.

Consider `CC(C)CC1=NCC(C)(C)NC2=C1C(c1ccc(F)cc1)NC2=O` (centres undefined), for which the growth is 0.91.

Regarding `COC(=O)[C@@]12Oc3cccc(O)c3C(=O)C1=C(O)CC[C@@H]2O`, the growth was 1.19.

With `CO[C@@H]1CCN(C(=O)c2c(O)cc(O)cc2Nc2cn(C)nc2C)C1`, the growth stood at 1.09.

`COc1ccc(-c2c(CO)c(CO)cc3cc4c(cc23)OCO4)cc1`: the growth was 1.06.

For `COC(=O)C/C=C/[C@H](C)[C@H](NC(=O)C(F)(F)F)c1ccc(-c2ccccc2)cc1`, the growth stood at 1.

With `COc1ccc(N2C(=O)c3[nH]nc(CC(C)C)c3C2c2ccc(F)cc2OC)cn1` (centres undefined), the growth was 0.996.

Turning to `Cc1cc(Nc2cc(O)cc(O)c2C(=O)N2CC3CC3C2)n(C)n1` (centres undefined), the growth turned out to be 1.09.

As for `CCCOc1ccc(/C=C/C(=O)O)c(OCCC)c1`, the growth stood at 1.03.

On to `COc1ccc(N2C(=O)c3[nH]nc(CC(C)C)c3C2c2cccc(Br)c2)cc1` (centres undefined), for which the growth was found to be 1.11.

Consider `C=CCC1=C(OC)C(CC=C)(C/C=C/c2ccccc2)C(O)=C(C(=O)c2ccccc2)C1=O` (centres undefined), for which the growth worked out at 0.953.

With `COc1ccc(N2C(=O)c3[nH]nc(CC(C)C)c3C2c2ccc(C(F)(F)F)cc2)cc1` (centres undefined), the growth amounted to 1.13.

Consider `C#Cc1ccccc1N1C[C@@]2(O)CC[C@@H](O)[C@@H](OC)[C@@H]2[C@@](C)(O)[C@@H]1CC=C(C)C`, for which the growth is 1.07.

Regarding `COC(=O)c1cc2c(c3c4cc(C)ccc4n(S(=O)(=O)c4ccc(C)cc4)c13)C(=O)N(Cc1ccc(C)cc1)C2`, the growth amounted to 1.09.

On to `COc1ccc([C@@]23Oc4cc(OC)cc(OC)c4[C@]2(O)C2=C(C(=O)N4CCC[C@H]4N2C)[C@H]3c2ccccc2)cc1`, for which the growth worked out at 1.16.

In the case of `CC(=O)C1=C(C)N(Cc2ccc(F)cc2)C(=S)NC1c1cccc(Cl)c1` (centres undefined), the growth was 0.892.

For `C=CCOC(=O)C(C(C)=O)[C@@H](NC(=O)OC)c1cccc(F)c1` (some centres undefined), the growth is 1.29.

Take `CC(=O)OC[C@H]1O[C@H](C#Cc2ccccc2C)C=C[C@@H]1OC(C)=O`: the growth was 1.03.

Consider `CC(C)c1c2c(nn1C)C(=O)N(c1ccccc1)C2c1ccc(F)cc1` (centres undefined), for which the growth came to 0.935.
